In the supplement of paper PMC5998384:

Tests used:
HeLa Kyoto [1] = test: solubility change mitosis vs G1/S (difference of NP-40 vs SDS log2 ratios) (log2 ratio difference); higher = more soluble in mitosis
HeLa Kyoto [2] = test: solubility in G1/S (NP-40 vs SDS abundance) (log2 ratio); higher = more soluble; details: cell cycle stage: G1/S
HeLa Kyoto [3] = test: thermal stability score vs G1/S (z-score of summed log2 fold changes over temperatures); higher = more thermally stable than in G1/S
HeLa Kyoto [4] = test: melting temperature (median over replicates), in situ; higher = more thermally stable
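Throughout, for melting temperature (median over replicates), in situ: HeLa Kyoto cells synchronized by double thymidine or nocodazole block, proteins quantified by TMT10plex mass spectrometry, three independent biological replicates.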
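Throughout, for solubility change mitosis vs G1/S (difference of NP-40 vs SDS log2 ratios): synchronized HeLa Kyoto cells (double thymidine block for G1/S, nocodazole release for mitosis), protein amounts in NP-40 versus SDS lysates quantified by mass spectrometry, three biological replicates.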
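Throughout, for solubility in G1/S (NP-40 vs SDS abundance): HeLa Kyoto cells arrested at G1/S by double thymidine block, proteins quantified by TMT10plex mass spectrometry in mild NP-40 versus SDS extracts, three biological replicates.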
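Throughout, for thermal stability score vs G1/S (z-score of summed log2 fold changes over temperatures): synchronized HeLa Kyoto cells, proteins quantified by TMT10plex mass spectrometry, three biological replicates, mitosis taken 0.5 h after nocodazole release, G1/S directly after double thymidine block.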

MAAVGRVGSFGSSPPGLSSTYTGGPLGNEIASGNGGAAAGDDEDGQNLWSCILSEVSTRSRSKLPAGKNVLLLGEDGAGKTSLIRKIQGIEEYKKGRGLEYLYLNVHDEDRDDQTRCNVWILDGDLYHKGLLKFSLDAVSLKDTLVMLVVDMSKPWTALDSLQKWASVVREHVDKLKIPPEEMKQMEQKLIRDFQEYVEPGEDFPASPQRRNTASQEDKDDSVVLPLGADTLTHNLGIPVLVVCTKCDAISVLEKEHDYRDEHFDFIQSHIRKFCLQYGAALIYTSVKENKNIDLVYKYIVQKLYGFPYKIPAVVVEKDAVFIPAGWDNDKKIGILHENFQTLKAEDNFEDIITKPPVRKFVHEKEIMAEDDQVFLMKLQSLLAKQPPTAAGRPVDASPRVPGGSPRTPNRSVSSNVASVSPIPAGSKKIDPNMKAGATSEGVLANFFNSLLSKKTGSPGGPGVSGGSPAGGAGGGSSGLPPSTKKSGQKPVLDVHAELDRITRKPVTVSPTTPTSPTEGEAS [DYNC1LI1]
solubility change mitosis (log2) (HeLa Kyoto [1]): -0.0139
solubility in G1/S (log2) (HeLa Kyoto [2]): 0.409
thermal stability score (HeLa Kyoto [3]; cell cycle stage: early G1 (4.5 h after nocodazole release)): 1.08
thermal stability score (HeLa Kyoto [3]; cell cycle stage: mitosis): 1.52
melting temperature (HeLa Kyoto [4]; cell cycle stage: G1/S): 51.8 °C
melting temperature (HeLa Kyoto [4]; cell cycle stage: mitosis): 52.3 °C
